Data from PubChem BioAssay AID1468 (National Center for Advancing Translational Sciences (NCATS), 2008).
“And” between values parts separate entries of the source, which are not always exact repeats. Identical values can stand only once. About 1,100 (0.39%) of roughly 280,000 compounds were called active. Inconclusive means that the source gave no clear call. Such entries were picked first, then a sample of the others. Calls come from the whole dose curve; as a rule, active = well fitted inhibition curve with a large enough effect; inconclusive = small, poorly fitted or top-dose-only effect, or effect the other way; inactive = flat fitted curve, though single readings scatter. Where the call is inconclusive, the potency comes from a doubtful curve fit.

Target: Microtubule-associated protein tau (Homo sapiens) (UniProt P10636)
Assay: qHTS for Inhibitors of Tau Fibril Formation, Fluorescence Polarization; note: nearly all actives have a fitted effect of over 55% in size
Conditions: K18 P301L tau heparin fibrillization, Alexa594 FP, 6 h; series mostly up to 57.7 µM; activity, negative = inhibition: at the top concentration
In short: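 Recombinant K18 P301L […], labeled with Alexa 594 at 0.24 uM over 15 uM unlabeled; heparin inducer 20 uM final; 37 C, 6 hr; FP endpoint.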
% is set by controls: 0 for no effect and ±100 for the full control effect; potency is the fitted concentration of half-maximal effect; tags give direction and shape of the fitted curve.

Sequence of UniProt P10636 (P10636 whole entry, looked up): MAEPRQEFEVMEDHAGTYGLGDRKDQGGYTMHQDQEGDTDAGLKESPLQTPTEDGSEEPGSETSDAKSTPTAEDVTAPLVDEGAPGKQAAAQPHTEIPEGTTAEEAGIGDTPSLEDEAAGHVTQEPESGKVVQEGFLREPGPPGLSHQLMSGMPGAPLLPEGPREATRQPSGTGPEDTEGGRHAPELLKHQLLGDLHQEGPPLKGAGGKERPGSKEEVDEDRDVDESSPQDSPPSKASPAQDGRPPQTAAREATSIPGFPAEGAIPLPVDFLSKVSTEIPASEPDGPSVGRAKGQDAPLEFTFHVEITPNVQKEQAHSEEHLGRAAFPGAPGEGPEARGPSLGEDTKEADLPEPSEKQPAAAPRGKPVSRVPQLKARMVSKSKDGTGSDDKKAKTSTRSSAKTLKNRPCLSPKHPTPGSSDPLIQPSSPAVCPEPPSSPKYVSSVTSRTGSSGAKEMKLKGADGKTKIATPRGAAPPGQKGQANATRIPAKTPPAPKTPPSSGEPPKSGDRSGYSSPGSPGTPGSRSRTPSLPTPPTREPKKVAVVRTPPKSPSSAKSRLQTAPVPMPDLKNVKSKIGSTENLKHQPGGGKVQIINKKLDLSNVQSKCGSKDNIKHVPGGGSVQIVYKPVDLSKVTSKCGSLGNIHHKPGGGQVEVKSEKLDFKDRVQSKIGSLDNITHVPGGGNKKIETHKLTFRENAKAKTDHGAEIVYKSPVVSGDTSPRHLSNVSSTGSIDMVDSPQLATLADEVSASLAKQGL

Row | SMILES | Potency | activity, negative = inhibition
1 | Oc1cc2c(cc1O)C(c1ccccc1)CNCC2 (configuration not stated) | inactive and inconclusive: 7.94 µM [inhibitor, partial curve, poor fit] and inconclusive: 8.91 µM [inhibitor, single point] | 
2 | CCOC(=O)c1c(C)oc2nc(C)nc(NCCCN3CCN(c4ccccc4)CC3)c12 | inconclusive: 2.82 µM [activator, single point] | 
3 | C=CCOc1nc2c(c(=O)n(C)c(=O)n2C)n1Cc1ccccc1 | inconclusive: 0.0251 µM [inhibitor, full curve, poor fit] | 
4 | COc1cc2c(=O)n(Cc3ccccc3)c(=O)n(CC(=O)NCCc3ccccc3)c2cc1OC | inconclusive: 6.31 µM [inhibitor, full curve, poor fit] | 
5 | Cc1ccc(NC2=C(Cl)C(=O)OC2OC(=O)c2ccco2)cc1 (configuration not stated) | inconclusive: 8.91 µM [inhibitor, single point] | 
6 | S=C(NCc1ccco1)Nc1ccc(Oc2ccc(Cl)cc2)cc1 | inconclusive: 14.1 µM [inhibitor, partial curve] | 
7 | O=C(CC1SC(=Nc2cccc3ccccc23)N(Cc2ccccn2)C1=O)Nc1ccccc1Br (configuration not stated) | inconclusive: 14.1 µM [inhibitor, single point] | 
8 | O=C(CN1CCOCC1)N1CCN(c2nnc(-c3ccccc3)c3ccccc23)CC1 |  | inactive: 5.36%
9 | c1ccc(COc2ccc(OCCOCCn3cncn3)cc2)cc1 |  | inactive: -3.81%
10 | CCOC(=O)N1CCN(c2ccc(F)cc2[N+](=O)[O-])CC1 | inconclusive: 44.7 µM [inhibitor, single point] | 
11 | COC(=O)N/N=C/c1cn(CCOc2ccccc2)c2ccccc12 | inconclusive: 2.24 µM [activator, full curve, poor fit] | 
12 | Clc1ccc(Nc2nc(C3CC3)cs2)cc1 | inconclusive: 2.82 µM [activator, full curve] | 
13 | COc1ccccc1CNC(=O)c1cc2cc3ccc(Cl)cc3nc2o1 | inconclusive: 39.8 µM [inhibitor, single point] | 
14 | COc1ccc(CNC(=O)c2cnc3sc(N4CCOCC4)nn3c2=O)cc1 |  | inactive: -8.04%
15 | CC[C@@H](c1ccccc1)n1c(=O)n2n(c1=O)[C@H]1[C@H](O)[C@H]3O[C@@H]3/C(=N/OCc3ccccc3)[C@@H]1CC2 |  | inactive: -8.31% [at 11.6 µM]
16 | Cc1c(Cl)c([N+](=O)[O-])nn1Cc1ccc(C(=O)N/N=C\c2cc(Cl)ccc2O)o1 | inconclusive: 11.2 µM [activator, partial curve, poor fit] | 
17 | O=C(c1ccc([N+](=O)[O-])cc1[N+](=O)[O-])N1CCCC1 | inconclusive: 39.8 µM [activator, single point] | 
18 | COc1ccc(C(=O)Nc2cc3c(cc2C(=O)c2ccccc2Cl)OCCO3)cc1 | inconclusive: 17.8 µM [inhibitor, partial curve] | 
19 | O=C(Cn1ccc(C(F)(F)F)n1)N/N=C/c1cccs1 | inconclusive: 3.16 µM [inhibitor, single point] | 
20 | CCOCc1nnc(NC(=O)c2cc(OC)cc(OC)c2)s1 |  | inactive: -13.5%
21 | O=C(c1cnn2c(C(F)(F)F)cc(-c3ccc4c(c3)OCO4)nc12)N1CCCCC1 |  | inactive: -3.1%

Row | SMILES | Potency | activity, negative = inhibition
22 | O=c1c2ccccc2c(-c2ccc(O)cc2)nn1-c1cccc(C(F)(F)F)c1 | inconclusive: 28.2 µM [inhibitor, partial curve] | 
23 | C=CCOC(=O)C1=C(C)NC(=S)C(C#N)(CC=C)C1c1ccccc1Cl (configuration not stated) | inconclusive: 28.2 µM [inhibitor, single point] | 
24 | CCOC(=O)c1ccccc1NC(=O)c1ccccc1SC |  | inactive: -1.72%
25 | O=C(OCc1ccc2c(c1)OCO2)c1ccc(S(=O)(=O)N2CCCCC2)cc1 | inconclusive: 20 µM [inhibitor, single point] | 
26 | Cc1ccc(N2CCN(C(=O)C3CCN(S(=O)(=O)c4ccc5c(c4)oc(=O)n5C)CC3)CC2C)cc1 (configuration not stated) |  | inactive: 4.71%
27 | O=C(COC(=O)CCCOc1ccc(Cl)cc1Cl)Nc1cccc(Cl)c1 | inconclusive: 14.1 µM [inhibitor, partial curve] | 
28 | CC(C)C(=O)OCC(=O)Nc1ccc(N=Nc2ccccc2)cc1 | inconclusive: 14.1 µM [inhibitor, partial curve, poor fit] | 
29 | O=C(Nc1nc2c(F)cccc2s1)c1ccc2c(c1)OCCO2 | inconclusive: 20 µM [inhibitor, partial curve] | 
30 | Cc1ccc(CNC(=O)c2ccc3c(c2)NC(=O)C(CS(=O)(=O)Cc2cccc(F)c2)N3)cc1 (configuration not stated) | inconclusive: 39.8 µM [inhibitor, single point] | 
31 | CN(C)c1ccc(C(CNC(=O)c2ccccc2Br)c2c[nH]c3ccccc23)cc1 (configuration not stated) | inconclusive: 15.8 µM [activator, partial curve] | 
32 | COC/C=C/C1=CC2=CC(=O)C(C)(OC(=O)c3ccco3)C(=O)C2=CO1 (configuration not stated) | inconclusive: 35.5 µM [inhibitor, single point] and inconclusive: 28.2 µM [inhibitor, partial curve] | 
33 | O=C(N/N=C1/C[C@@H](O)[C@@H](O)[C@@H]2[C@@H]3C(=O)N(Cc4ccc5c(c4)OCO5)C(=O)[C@H]3CC[C@H]12)OCc1ccccc1 |  | inactive: -2.88% [at 11.6 µM]
34 | COc1ccc(-c2nc3ccccc3c(=O)n2CCOc2cc(C)ccc2C)cc1 | inconclusive: 44.7 µM [inhibitor, single point] | 
35 | COc1ccc(CCNC(=O)COC(=O)Cc2ccc(OC)cc2)cc1 |  | inactive: 0.878%
36 | Cc1ccc(C(=O)Nc2ccc(S(=O)(=O)N(Cc3ccccc3)c3ccccc3)cc2)cc1 | inconclusive: 25.1 µM [inhibitor, partial curve] | 
37 | COc1ccc(C(=O)NC(=S)Nc2cccc(Cl)c2N2CCOCC2)cc1[N+](=O)[O-] | inconclusive: 20 µM [inhibitor, partial curve] | 
38 | O=C(NCCc1c[nH]c2ccccc12)C(=O)NCC(c1ccco1)N1CCN(c2ccccc2F)CC1 (configuration not stated) | inconclusive: 2.51 µM [activator, single point] | 
39 | Cc1ccc(-c2cnc3n2CCCCC3)cc1 |  | inactive: 7.34%
40 | O=S(=O)(c1ccc(Cl)cc1)c1nc(-c2ccccc2F)oc1NCc1ccccc1 | inconclusive: 20 µM [inhibitor, single point] | 
41 | CCOC(=O)c1ccc(NC(=O)CN(C)S(=O)(=O)c2ccc(Br)s2)cc1 | inconclusive: 22.4 µM [inhibitor, single point] | 
42 | O=C(N/N=C/c1ccc(-c2cccc(C(F)(F)F)c2)o1)c1cccc(F)c1 | inconclusive: 12.6 µM [inhibitor, partial curve] | 

Row | SMILES | Potency | activity, negative = inhibition
43 | Cc1ccc(NC(=O)CC(c2ccc(F)cc2)N2Cc3ccccc3C2=O)cc1C (configuration not stated) | inconclusive: 28.2 µM [inhibitor, single point] | 
44 | COc1ccc(/C(O)=C2/C(=O)C(=O)N(CCN(C)C)C2c2cccnc2)cc1OC (configuration not stated) |  | inactive: -3.67%
45 | O=C1NCCN/C1=C\C(=O)c1ccc(Cl)cc1 | inconclusive: 39.8 µM [inhibitor, single point] | 
46 | N#CC(=C=[N-])C1=C(C#N)C(c2ccccc2F)C([n+]2ccccc2)C(O)(C2CC2)N1 (configuration not stated) |  | inactive: -1.06%
47 | CCc1c(C)nc2c(-c3ccccc3)c(C)nn2c1Nc1ccc(NC(C)=O)cc1 | inconclusive: 3.55 µM [activator, full curve, poor fit] | 
48 | CCc1nnc(N/N=C/c2ccc(-c3ccc([N+](=O)[O-])cc3)o2)n1N | inconclusive: 10 µM [inhibitor, partial curve] | 
49 | COc1ccc2c(Sc3ccc(C)cc3)c(C(=O)NC(C)c3ccccc3)[nH]c2c1 (configuration not stated) |  | inactive: 1.38%
50 | O=C1OCCN1C(=O)[C@H]1[C@H](c2ccccc2)C(c2cccc(Cl)c2)=NN1c1ccc(Br)cc1 | inconclusive: 39.8 µM [inhibitor, single point] | 
51 | CCc1cc[n+](-c2nc([O-])sc2C=O)cc1 | inconclusive: 0.447 µM [inhibitor, full curve, poor fit] | 
52 | CCc1ccccc1NC(=O)c1ccc(F)c(S(=O)(=O)N2CCN(c3ccccc3OC)CC2)c1 |  | inactive: 4.74%
53 | COc1ccc(NC(C)C(=O)N/N=C/c2cc(Br)ccc2OC)cc1 (configuration not stated) | inconclusive: 17.8 µM [activator, single point] | 
54 | CS(=O)(=O)Nc1cccc(C2=NN(S(C)(=O)=O)C(c3ccc4c(c3)OCO4)C2)c1 (configuration not stated) | inconclusive: 1 µM [activator, full curve, poor fit] | 
55 | Cc1ccc(S(=O)(=O)N2CCCc3cc(NC(=O)c4cccc(Cl)c4)ccc32)cc1 | inconclusive: 10 µM [inhibitor, partial curve] | 
56 | Cc1cccc(-c2cc(-c3ccccc3)nc(SCC(=O)Nc3ccccc3)c2C#N)c1 | inconclusive: 20 µM [inhibitor, single point] | 
57 | Nc1c(C(=O)NCC2CCCO2)sc2nc3c(c(-c4ccco4)c12)CC/C3=C\c1ccco1 (configuration not stated) | inconclusive: 28.2 µM [inhibitor, partial curve] | 
58 | Cc1ccc(C(=O)c2cc3c(cc2[N+](=O)[O-])OCCO3)cc1 | inconclusive: 7.94 µM [inhibitor, single point] | 
59 | C/C(=N\NC(=O)c1csc(C)c1C)c1ccc(C)s1 |  | inactive: 0.627%
60 | CCC(=O)Nc1cc(C(=O)O)ccc1S(=O)(=O)c1ccc(C)cc1 |  | inactive: -3.63%
61 | NC(N)=NS(=O)(=O)c1ccc(NC(=S)NC(=O)/C=C/c2cccs2)cc1 | inconclusive: 35.5 µM [inhibitor, partial curve] | 
62 | CCOC(=O)c1sc(NC(=O)c2ccc(S(=O)(=O)N(C)C)cc2)cc1C | inconclusive: 22.4 µM [inhibitor, partial curve] | 
